Results on 45 sequences are retold here after the supplement of paper PMC10338343.

The test system of the assay is MIWI (PIWIL1) piRISC loaded with L1MC piRNA (30 nt). Nature of the assay: pre-steady-state target cleavage rate (min^-1); MIWI and MILI are mouse PIWI proteins and EfPiwi is from a freshwater sponge; tags in brackets are library labels; higher = faster piRNA-guided slicing of the target. As to conditions: guide: L1MC piRNA 5'p-UAACUAAAUACUAUGCAAGCUGUAGGUCCU
In short, it runs like this: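 For Cleave-'n-Seq, a transcribed, DNA-blocked target RNA library […] met 1 nM active affinity-purified piRISC with one synthetic guide at 33 °C for 0–8 or 0–960 min in HEPES–potassium acetate buffer, with or without 500 nM GTSF1 partner protein. Uncleaved targets were sequenced and normalised to depth and weakly complementary targets, with three trials pooled and k3 capped at 0.0001 min^-1. A burst-and-steady-state fit supplied the pre-steady-state cleavage rate.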

Where [1] appears, read: auxiliary factor: 500 nM mouse GTSF1.
[2] abbreviates: auxiliary factor: none (no GTSF1).

± gives the standard deviation. The entries are a selection whose mix differs from that of the whole data set.
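Note: 1 nM active piRISC with 0.1 nM target library at 33 °C single turnover.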

Regarding AGGACCUACUGCUUGCAUAGUAUUAAGUUA, the “pre-steady-state target cleavage rate” value under setting [1] came out at 0.616 ± 0.045 and the “pre-steady-state target cleavage rate” value under setting [2] was found to be 0.0365 ± 0.0059.

As for AGGACCUACAGCUUGCAUAGUAUAUACUUA, the “pre-steady-state target cleavage rate” value runs as follows: under setting [1], 0.254 ± 0.048; under setting [2], 0.00911 ± 0.0026.

Consider UCCUGGAACACGAUGCAUAGUAUUUAGUUA, for which the “pre-steady-state target cleavage rate” value under setting [1] came to 0.0743 ± 0.013 and the “pre-steady-state target cleavage rate” value under setting [2] was 0.0029 ± 0.0024.

With UCCUGGAUCAGCUUGCAUAGGAUUUAGUUA, the “pre-steady-state target cleavage rate” value reads like this: under setting [1], 0.0196 ± 0.0032; under setting [2], 0.00856 ± 0.0035.

Take UCCUGGUACAGCUUGCAUAGUAUUUCAGUUA: the “pre-steady-state target cleavage rate” value reads like this: under setting [1], 0.505 ± 0.12; under setting [2], 0.00567 ± 0.0032.

Regarding UCGACCUACUGCUUGCAUAGUAUUUAGAUA, the “pre-steady-state target cleavage rate” value is, setting by setting: under setting [1], 0.273 ± 0.023; under setting [2], 0.0197 ± 0.0035.

On to UCGACGCUACAGCUUGCAUAGUAUUUAGUUA, for which the “pre-steady-state target cleavage rate” value was 1.27 ± 0.063 under setting [1] and 0.094 ± 0.022 under setting [2].

Regarding UCCUGGAUCAGCUUGCAUAGUAUUUAGAUA, the “pre-steady-state target cleavage rate” value under setting [1] is 0.33 ± 0.025 and the “pre-steady-state target cleavage rate” value under setting [2] turned out to be 0.0179 ± 0.0048.

In the case of AGGAGCUACAGCUUGCAUAGUAUUUACUUA, the “pre-steady-state target cleavage rate” value reads like this: under setting [1], 0.368 ± 0.05; under setting [2], 0.0464 ± 0.0098.

In the case of UCCUCCUACAGCUUGCAUAGAAUUUUGUUA, the “pre-steady-state target cleavage rate” value by setting is: under setting [1], 0.303 ± 0.048; under setting [2], 0.00989 ± 0.0026.

As for UCCUCCUACAGCUUUGCAUAGUAUUUAGUUA, the “pre-steady-state target cleavage rate” value came to 1.08 ± 0.033 under setting [1] and 0.0172 ± 0.0036 under setting [2].

For UCCACCUACUGCUUGGAUAGUAUUUAGUUA, the “pre-steady-state target cleavage rate” value reads like this: under setting [1], 1.14 ± 0.049; under setting [2], 0.0503 ± 0.0082.

With UCCUGGAUGAGCUUGCAAAGUAUUUUGUUA, the “pre-steady-state target cleavage rate” value stood at 0.267 ± 0.029 under setting [1] and 0.0136 ± 0.0037 under setting [2].

As for UCCUGGAACAGCUUGCAGAGUAUUUAGUUA, the “pre-steady-state target cleavage rate” value by setting is: under setting [1], 0.779 ± 0.06; under setting [2], 0.0327 ± 0.0097.

UCCUGGAUGUGCUUGCAUCGUAUUUAGUUA: the “pre-steady-state target cleavage rate” value under setting [1] turned out to be 0.0767 ± 0.014 and the “pre-steady-state target cleavage rate” value under setting [2] came out at 0.0191 ± 0.0038.

Take UCCUGCAACACCUUGCAUAGUAUUUAGUUA: the “pre-steady-state target cleavage rate” value by setting is: under setting [1], 0.611 ± 0.092; under setting [2], 0.0148 ± 0.004.

For UCGACCUACAGCUUGCAUACUAAUUAGUUA, the “pre-steady-state target cleavage rate” value under setting [1] was 0.208 ± 0.018 and the “pre-steady-state target cleavage rate” value under setting [2] was 0.00836 ± 0.0022.

In the case of UCCUGCUACAGCUUGCAAAGUAUUUAGAUA, the “pre-steady-state target cleavage rate” value runs as follows: under setting [1], 0.297 ± 0.036; under setting [2], 0.00879 ± 0.0018.

UCCACCUUGUGCUUGCAUAGUAUUUAGUUA: the “pre-steady-state target cleavage rate” value by setting is: under setting [1], 0.492 ± 0.03; under setting [2], 0.0325 ± 0.0064.

As to UCCUGGUAGUGCUUGCAUAGUAUUUAGAAA, the “pre-steady-state target cleavage rate” value is 0.0731 ± 0.014 under setting [1] and 0.00718 ± 0.0032 under setting [2].

As for AGGACCUACAGCUUGCAUAGUAUUUUAGUUA, the “pre-steady-state target cleavage rate” value is 1.08 ± 0.058 under setting [1] and 0.056 ± 0.014 under setting [2].

As for UCCUGGAUGUGUCUUGCAUAGUAUUUAGUUA, the “pre-steady-state target cleavage rate” value was 0.243 ± 0.023 under setting [1] and 0.0211 ± 0.0053 under setting [2].

In the case of UCCUCCUACGCUUGCAUAGUAUUUAGUUA, the “pre-steady-state target cleavage rate” value runs as follows: under setting [1], 1.24 ± 0.045; under setting [2], 0.0478 ± 0.0094.

For UCCACGUACAGCUUGCAUAGUAUUUAGUAA, the “pre-steady-state target cleavage rate” value under setting [1] turned out to be 0.521 ± 0.032 and the “pre-steady-state target cleavage rate” value under setting [2] is 0.0319 ± 0.0057.

Regarding UCCUGGAACACCUUGCAAAGUAUUUAGUUA, the “pre-steady-state target cleavage rate” value under setting [1] amounted to 0.511 ± 0.057 and the “pre-steady-state target cleavage rate” value under setting [2] was determined as 0.009 ± 0.0027.

For UCCAGGAACAGCUUGCAUAGUAUUUAGUAA, the “pre-steady-state target cleavage rate” value came to 0.57 ± 0.047 under setting [1] and 0.0391 ± 0.0081 under setting [2].

For the sequence UCCUGGAUGAGCUUGCAUAGUAUUUAUGUUA, the “pre-steady-state target cleavage rate” value runs as follows: under setting [1], 0.273 ± 0.042; under setting [2], 0.0182 ± 0.0042.

On to UCGACCUACAGCUUGCAUACUAUUUAGAUA, for which the “pre-steady-state target cleavage rate” value runs as follows: under setting [1], 0.113 ± 0.021; under setting [2], 0.0116 ± 0.0026.

For UGGACGUACAGCUAGCAUAGUAUUUAGUUA, the “pre-steady-state target cleavage rate” value under setting [1] came to 0.986 ± 0.047 and the “pre-steady-state target cleavage rate” value under setting [2] came to 0.0457 ± 0.0096.

In the case of UCCUGGAUGAGCUUGCAUAGAAUUUUGUUA, the “pre-steady-state target cleavage rate” value reads like this: under setting [1], 0.118 ± 0.028; under setting [2], 0.0105 ± 0.0047.

UCCUGGUACAGCUUGCAUAGUAUUUGAGUUA: the “pre-steady-state target cleavage rate” value by setting is: under setting [1], 0.325 ± 0.043; under setting [2], 0.0156 ± 0.0057.

Consider UCCACCUACAGCUUGCAUAGAAUUUAGAUA, for which the “pre-steady-state target cleavage rate” value is, setting by setting: under setting [1], 0.247 ± 0.037; under setting [2], 0.00935 ± 0.0029.

On to UCCACCUACAGCUUGCAUACAAUUUAGUUA, for which the “pre-steady-state target cleavage rate” value is, setting by setting: under setting [1], 0.0168 ± 0.0062; under setting [2], 0.00369 ± 0.0021.

On to UCGUCCUACAGCUUGCAUAGUAUUUUGUUA, for which the “pre-steady-state target cleavage rate” value was determined as 0.738 ± 0.024 under setting [1] and 0.0434 ± 0.0067 under setting [2].

Consider UCCUGGAUGUCCUUGCAUAGUGUUUAGUUA, for which the “pre-steady-state target cleavage rate” value runs as follows: under setting [1], 0.069 ± 0.012; under setting [2], 0.0107 ± 0.0026.

With UCGACCUACAGCUUGGAUAGAAUUUAGUUA, the “pre-steady-state target cleavage rate” value under setting [1] turned out to be 0.365 ± 0.044 and the “pre-steady-state target cleavage rate” value under setting [2] is 0.0154 ± 0.0035.

As for UCCUGGAACAGAUUGCAUAGUAUUUAGUUA, the “pre-steady-state target cleavage rate” value was determined as 0.957 ± 0.051 under setting [1] and 0.0213 ± 0.0047 under setting [2].

For UCCUGGAUGAGCUUGCAUAGUAAUUACUUA, the “pre-steady-state target cleavage rate” value worked out at 0.0406 ± 0.014 under setting [1] and 0.00637 ± 0.0034 under setting [2].

As to UCCACCUACAGCUUGCAUACUAUUUAGAAA, the “pre-steady-state target cleavage rate” value worked out at 0.113 ± 0.021 under setting [1] and 0.00399 ± 0.0022 under setting [2].

For the sequence AGGACCUACACGUUGCAUAGUAUUUAGAAA, the “pre-steady-state target cleavage rate” value runs as follows: under setting [1], 0.43 ± 0.045; under setting [2], 0.00563 ± 0.0027.

Consider UGGACCUACUAGCUUGCAUAGUAUUUAGUUA, for which the “pre-steady-state target cleavage rate” value is, setting by setting: under setting [1], 0.63 ± 0.036; under setting [2], 0.0509 ± 0.01.

For the sequence UCCACCUACAGCUUGCAUAGUAUUUAGUUUA, the “pre-steady-state target cleavage rate” value came out at 0.907 ± 0.047 under setting [1] and 0.0632 ± 0.014 under setting [2].

On to UCCACCUACUGCUUGCAUAGUAUUUAGAAA, for which the “pre-steady-state target cleavage rate” value runs as follows: under setting [1], 0.171 ± 0.03; under setting [2], 0.00434 ± 0.002.

For the sequence AGGAGCUACAGCUUGCAUAGUAUUUUCAAA, the “pre-steady-state target cleavage rate” value under setting [1] was found to be 0.239 ± 0.038 and the “pre-steady-state target cleavage rate” value under setting [2] was 0.0044 ± 0.0031.

Take UGGACCUACAGUUGCAUAGUAUUUAGUUA: the “pre-steady-state target cleavage rate” value under setting [1] amounted to 1.06 ± 0.094 and the “pre-steady-state target cleavage rate” value under setting [2] amounted to 0.00944 ± 0.0032.
